# Where “and” joins values, the source holds several entries; their conditions need not be identical. Identical values can stand only once. In all, about 74,000 compounds went through this assay and about 1,100 (1.5%) were called active. The inconclusive results got no clear call from the source; some entries with a clear call stand among them for comparison. The call rests on the fitted dose curve; in most records, active means well fitted inhibition curve with a large enough effect; inconclusive means small, poorly fitted or top-dose-only effect; inactive means no such curve, though single readings can be large or run the other way. Potencies of inconclusive entries are doubtful fits and often do not repeat.
# Target: Polyunsaturated fatty acid lipoxygenase ALOX15 (Homo sapiens) (UniProt P16050)
# UniProt P16050, sequence (P16050 whole entry, looked up): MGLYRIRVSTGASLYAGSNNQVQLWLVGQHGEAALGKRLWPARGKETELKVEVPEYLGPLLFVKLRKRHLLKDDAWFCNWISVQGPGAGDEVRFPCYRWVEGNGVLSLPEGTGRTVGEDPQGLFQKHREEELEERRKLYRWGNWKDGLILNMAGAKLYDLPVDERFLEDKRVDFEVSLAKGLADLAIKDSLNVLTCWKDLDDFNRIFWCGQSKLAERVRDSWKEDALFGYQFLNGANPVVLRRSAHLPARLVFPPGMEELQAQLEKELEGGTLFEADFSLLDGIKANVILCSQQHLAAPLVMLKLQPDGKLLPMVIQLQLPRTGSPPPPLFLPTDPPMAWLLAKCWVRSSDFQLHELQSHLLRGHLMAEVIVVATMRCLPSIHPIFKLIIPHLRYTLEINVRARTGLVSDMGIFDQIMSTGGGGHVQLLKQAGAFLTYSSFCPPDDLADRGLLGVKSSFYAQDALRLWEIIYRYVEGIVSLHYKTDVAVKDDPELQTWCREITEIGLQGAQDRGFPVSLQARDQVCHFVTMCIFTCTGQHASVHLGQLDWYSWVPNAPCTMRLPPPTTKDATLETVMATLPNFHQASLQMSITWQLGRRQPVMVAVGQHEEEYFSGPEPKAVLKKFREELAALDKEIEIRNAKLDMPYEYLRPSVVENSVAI
# Assay: qHTS Assay for Inhibitors of 15-hLO (15-human lipoxygenase); further: nearly all actives have a fitted effect of over 55% in size
# Conditions: purified 15hLO-1, xylenol orange hydroperoxide absorbance; activity change, negative = inhibition: at 57.1 µM (top of the series) unless noted
# Method in brief: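 Purified human 15hLO-1 (40 nM final) in 25 mM Hepes pH 7.5, 0.01% Triton X-100 was preincubated with compound 15 min at room temperature, then reacted 6 min with 50 uM arachidonic acid; hydroperoxide detected by Fe-XO, 573/405 nm absorbance ratio.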
# On the % scale 0 is the no-effect control and ±100 the full control effect; potency means the concentration at half of the fitted maximal effect; tags describe the fitted curve by direction and shape.
Structure (SMILES),Potency,"activity change, negative = inhibition"
COc1cccc(C2C(C#N)=C(N)Oc3c2oc(CO)cc3=O)c1OC (configuration not stated),"inconclusive: 31.6 µM [inhibitor, single point]",
Cn1cc(C(=O)c2ccccc2)cc1-c1nc2ccccc2n1C,,inactive: 6.45%
CN1CC=C2C(C#N)=C(N)C(C#N)(C#N)C(Cc3ccccc3)C2C1 (configuration not stated),"inconclusive: 25.1 µM [inhibitor, partial curve]",
CCCCOCC1CN(c2ccccc2)C(=O)CS1 (configuration not stated),"inconclusive: 15.8 µM [inhibitor, single point]",
O=C(NC1=NCCS1)c1cccc(S(=O)(=O)N2CCCCC2)c1,"inconclusive: 7.94 µM [inhibitor, single point]",
CCc1nnc(NC(=O)CCC(=O)N2CCN(Cc3ccc(Cl)cc3)CC2)s1,,inactive: -13.1%
CN1CCN(c2ncc3nc(-c4cn(C)c5ccccc45)c(=O)n(Cc4cccs4)c3n2)CC1,"inconclusive: 25.1 µM [inhibitor, partial curve]",
CN1CCc2cccc3c2[C@@H]1Cc1ccc(O)c(O)c1-3,"inconclusive: 794 nM [inhibitor, full curve] and inconclusive: 3.98 µM [inhibitor, partial curve]",
CCOCCCNc1ncnc2c1[nH]c1ccccc12,,inactive: 11.4%
CN(C)S(=O)(=O)c1ccc(C(=O)Nc2ccc(CN3CCCC3)cc2)cc1,"inconclusive: 31.6 µM [inhibitor, single point]",
O=C(Oc1ccccc1)N1CCN(c2ccc(F)cc2)CC1,"inconclusive: 7.94 µM [inhibitor, single point]",
N#Cc1c(N)c(C#N)c(-c2ccc(O)cc2)c2c1CCCC2,"inconclusive: 15.8 µM [inhibitor, partial curve]",
Nc1ccc(Cl)cc1[N+](=O)[O-],,inactive: 4.15%
Nc1ccccc1S[C@@H](C[N+](=O)[O-])c1ccc2c(c1)OCO2,active: 2.51 µM,
C=CCCCCCCCCCCCc1ccco1,,inactive: -14.7%
FC(F)(F)c1ccccc1-c1nc(NCc2cccnc2)c2ccccc2n1,"inconclusive: 39.8 µM [inhibitor, single point]",
Nc1c(C(=O)Nc2ccccc2)sc2nc(-c3ccco3)ccc12,"inconclusive: 25.1 µM [inhibitor, partial curve]",
COc1ccc(S(=O)(=O)C(C#N)c2nc3ccccc3nc2N2CCCCC2)cc1 (configuration not stated),,inactive: -22.4%
N#Cc1c(-c2ccco2)cc(C2CC2)nc1SCC(=O)c1ccccc1,active: 15.8 µM,
Cc1ccc(NC(=O)c2ccc(NS(=O)(=O)c3c(C)noc3C)cc2)cc1C,,inactive: -6.38%
COc1cc2[nH]c(=S)n(C3CCCC3)c(=O)c2cc1OC,active: 15.8 µM,
CN(CCCNC(=O)C1CCC(=O)N1Cc1ccc(F)cc1)c1ccccc1 (configuration not stated),"inconclusive: 31.6 µM [inhibitor, partial curve]",
NC(Cc1cc(I)c(Oc2cc(I)c(O)c(I)c2)c(I)c1)C(=O)O (configuration not stated),active: 12.6 µM,
CCC1CCCCN1CC(=O)c1c(C)[nH]c2ccccc12 (configuration not stated),"inconclusive: 10 µM [inhibitor, partial curve]",

Structure (SMILES),Potency,"activity change, negative = inhibition"
COc1cc2c(cc1OC)CN(Cc1cccs1)CC2,"inconclusive: 0.199 µM [inhibitor, full curve]",
OC(CN1CCC(Cc2ccc(F)cc2)CC1)c1ccc(Cl)cc1 (configuration not stated),"inconclusive: 25.1 µM [inhibitor, single point]",
COc1cccc(NC(=O)C2CCN(S(C)(=O)=O)CC2)c1,,inactive: -2.91%
COc1ccccc1Nc1nc2c(s1)CCC2,"inconclusive: 25.1 µM [inhibitor, single point]",
CCc1ccc(C2CC(=O)N3CN(c4ccccc4)CSC3=C2C#N)cc1 (configuration not stated),active: 2.51 µM,
c1cc(N2CCCC2)ccc1C(c1nnnn1C1CCCCC1)N1CCOCC1 (configuration not stated),"inconclusive: 15.8 µM [inhibitor, partial curve]",
COc1cccc(Cn2c(=O)c(-c3ccc(F)c(F)c3)nc3cncnc32)c1,"inconclusive: 31.6 µM [inhibitor, single point]",
COc1ccccc1Nc1nc(N)nc(CN2CCc3ccccc3C2)n1,"inconclusive: 15.8 µM [inhibitor, partial curve]",
COc1cccc(C2CC(C(F)(F)F)n3ncc(C(=O)NCC4CCCO4)c3N2)c1 (configuration not stated),,inactive: 6.84%
Cc1cc(SCC(=O)NC(=O)NCc2ccco2)nc2c(C)cccc12,"inconclusive: 2.51 µM [inhibitor, partial curve]",
COc1ccccc1NC(=O)c1cc2ccccc2o/c1=N\O,"inconclusive: 39.8 µM [inhibitor, single point]",
O=C(CSc1ncnc2c1oc1ccccc12)N1CCCc2ccccc21,"inconclusive: 15.8 µM [inhibitor, partial curve]",
C#CCCCO/N=C1/C[C@@H](O)[C@@H](O)[C@@H]2[C@@H]3C(=O)N(Cc4ccc5c(c4)OCO5)C(=O)[C@H]3CC[C@@H]12,,inactive: 3.76% [at 11.4 µM]
COc1ccccc1N1CCN(C(=O)C2CCC(Cn3c(=S)[nH]c4ccccc4c3=O)CC2)CC1 (configuration not stated),"inconclusive: 12.6 µM [inhibitor, partial curve]",
CCCC(c1nnnn1Cc1ccccc1)N1CCC(C(N)=O)CC1 (configuration not stated),"inconclusive: 39.8 µM [inhibitor, single point]",
CCCc1nnc2n1N=C(c1ccc(OC)c(OC)c1)CS2,,inactive: -4.02%
COc1ccc(C(=O)Nc2ccc3c(c2)nc2n3CCSC2)cc1,"inconclusive: 25.1 µM [inhibitor, single point]",
CC(=O)Nc1cccc(Oc2ccc(-c3noc(C)n3)cc2)c1,,inactive: -9.85%
COc1ncc2nc(-c3ccc(F)cc3)c(=O)n(C[C@H]3CCCO3)c2n1,,inactive: -13%
O=C(C1CCC1)N1CCc2cc(S(=O)(=O)Nc3ccc4c(c3)OCO4)ccc21,"inconclusive: 15.8 µM [inhibitor, partial curve]",
c1ccc(-c2noc(C3CCCCC3)n2)nc1,,inactive: -13.6%
CC(C=O)Cc1ccc(C(C)(C)C)cc1 (configuration not stated),,inactive: 2.19%
CCN(CC)S(=O)(=O)c1ccc(-c2nnc(SCC(=O)Nc3ccc4c(c3)OCO4)o2)cc1,,inactive: -18.7%
COc1ccc(S(=O)(=O)N(C)CC(=O)N2CCN(C)CC2)cc1C,"inconclusive: 20 µM [inhibitor, partial curve]",

Structure (SMILES),Potency,"activity change, negative = inhibition"
C/C(=C\c1ccco1)C1Nc2cccc3cccc(c23)N1,"inconclusive: 3.16 µM [inhibitor, partial curve]",
Nc1c(NCCC2=CCCCC2)c(=O)[nH]c(=O)n1Cc1ccccc1,"inconclusive: 12.6 µM [inhibitor, partial curve]",
c1ccc2c(c1)CCN(c1nc3cc4c(cc3s1)OCCO4)C2,active: 3.98 µM,
CC1=C(C(=O)N2CCOCC2)C(c2cccs2)NC(=O)N1 (configuration not stated),,inactive: -1.27%
COc1cc2c(cc1NC(=O)c1ccco1)CCCC2,"inconclusive: 1.58 µM [inhibitor, partial curve]",
Cc1o[nH]c(=O)c1CC[C@H](N)C(=O)O,"inconclusive: 3.98 µM [inhibitor, full curve, poor fit]",
NC(=O)C1(N2CCCCC2)CCN(c2ccc3nnc(-c4ccccc4)n3n2)CC1,"inconclusive: 7.94 µM [inhibitor, full curve, poor fit]",
COc1cc2c(cc1OC)C(C)N(C(=O)c1cc3n(n1)C(C(F)(F)F)CC(c1ccco1)N3)CC2 (configuration not stated),"inconclusive: 25.1 µM [inhibitor, single point]",
Cc1cc(NCc2ccccc2)nc(-c2ccccc2O)n1,"inconclusive: 15.8 µM [inhibitor, partial curve]",
O=C(O)Cn1c(O)c(C=Nc2ccccc2)sc1=S,"inconclusive: 25.1 µM [inhibitor, single point]",
CCC(=O)N(Cc1cc(=O)[nH]c2ccccc12)C1CCCCC1,"inconclusive: 25.1 µM [inhibitor, single point]",
CCC(C)(C)n1nnnc1CN(Cc1ccco1)Cc1cc2cc3c(cc2[nH]c1=O)OCO3,active: 0.0079 µM,
Cc1csc(NC(=O)c2ccccc2O)n1,,inactive: -21.6%
O=C1CCCC2=C1C(c1ccc3c(c1)OCO3)c1c([nH]n(-c3ccccc3)c1=O)N2 (configuration not stated),,inactive: -7.22%
CCOC(=O)c1c(CN2CCOCC2)n(C)c2cc(Br)c(O)c(CN(C)C)c12,"inconclusive: 3.16 µM [inhibitor, single point]",
Cc1cc(-c2[nH]nc3c2C(c2ccsc2)C(C#N)=C(N)O3)c(C)s1 (configuration not stated),"inconclusive: 31.6 µM [inhibitor, single point]",
O=c1c2c(nc3c(-c4ccccc4)c[nH]n13)CCCC2,"inconclusive: 0.199 µM [inhibitor, full curve, poor fit]",
O=C1c2ccccc2C(Nc2ccc(F)c(Cl)c2)N1Cc1ccco1 (configuration not stated),"inconclusive: 15.8 µM [inhibitor, partial curve]",
N#Cc1c(N)nc(SCC(=O)OCc2ccccc2)c(C#N)c1-c1ccco1,active: 15.8 µM,
Cc1cccc2cc(CN(CC3CCCO3)C(c3nnnn3Cc3ccco3)C(C)C)c(=O)[nH]c12 (configuration not stated),"inconclusive: 12.6 µM [inhibitor, partial curve]",
CC(C)C1N=C2c3ccccc3N=C(SCC(=O)c3ccc(O)c(O)c3)N2C1=O (configuration not stated),"inconclusive: 10 µM [inhibitor, partial curve]",
C[C@H]1COC(=O)[C@H]2CCCN2C(=O)[C@@H](C)COC(=O)[C@H](Cc2ccccc2)NC1=O,,inactive: 0.356% [at 11.4 µM]
Cc1ccc(S(=O)(=O)C(C#N)c2nc3ccccc3nc2N2CCCC2)cc1C (configuration not stated),active: 12.6 µM,
COc1ccc2c(c1)OCC(Cc1ccc(O)c(OC)c1)C2=O (configuration not stated),"inconclusive: 15.8 µM [inhibitor, partial curve]",
